# The list shows a part of the results. These are enrichments in a pooled selection; single values are uncertain. Scores sum up all selected molecules that hold the word; the word was not tested alone.
# Columns and labels:
# Test in all cases: 6-mer SELEX enrichment z-score vs GST control; IMP3 is the RNA-binding protein IGF2BP3; higher = more enriched by binding
# IMP3 KH1-4 = details: construct: KH1-4 (164-579); SELEX round: R4
# Procedure: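 SELEX-seq with GST-tagged IMP3 KH1-4 (Pro164-Lys579) and an N40 RNA pool, round 4. 6-mer z-score of sequence-tag enrichment normalised to the corresponding GST SELEX round; RNA k-mers written as DNA (T for U).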
# IMP3 RRM1-2 = details: construct: RRM1-2 (1-163); SELEX round: R2
# IMP3 RRM1-2, sequence (chain, as listed by the source): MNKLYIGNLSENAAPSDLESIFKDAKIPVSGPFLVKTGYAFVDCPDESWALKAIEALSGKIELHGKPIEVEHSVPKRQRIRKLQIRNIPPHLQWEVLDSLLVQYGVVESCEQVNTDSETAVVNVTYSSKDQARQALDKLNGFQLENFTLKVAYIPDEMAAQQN
# Procedure: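 SELEX-seq with GST-tagged IMP3 RRM1-2 (Met1-Asn163) and an N40 RNA pool, round 2. 6-mer enrichment z-score normalised to GST SELEX. RNA written as DNA (T = U).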
# IMP3 full-length = IMP3 full-length (UniProt O00425); details: construct: FL IMP3 (1-579); SELEX round: R4
# UniProt O00425, sequence (O00425 whole entry): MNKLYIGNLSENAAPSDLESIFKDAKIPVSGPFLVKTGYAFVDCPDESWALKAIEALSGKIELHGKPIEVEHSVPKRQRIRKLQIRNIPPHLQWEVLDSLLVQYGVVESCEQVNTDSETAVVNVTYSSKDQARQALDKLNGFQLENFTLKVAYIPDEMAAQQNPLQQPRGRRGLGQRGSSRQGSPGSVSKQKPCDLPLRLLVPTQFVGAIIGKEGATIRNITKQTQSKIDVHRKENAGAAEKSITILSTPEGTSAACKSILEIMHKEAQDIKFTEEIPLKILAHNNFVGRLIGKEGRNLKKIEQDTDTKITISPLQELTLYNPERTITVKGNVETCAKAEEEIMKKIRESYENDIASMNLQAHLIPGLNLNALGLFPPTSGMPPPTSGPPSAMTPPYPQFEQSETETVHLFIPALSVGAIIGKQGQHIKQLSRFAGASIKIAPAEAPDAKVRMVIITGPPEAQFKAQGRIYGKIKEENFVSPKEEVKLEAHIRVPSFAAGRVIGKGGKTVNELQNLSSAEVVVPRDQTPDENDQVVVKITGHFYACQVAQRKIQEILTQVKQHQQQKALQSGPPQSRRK
# Procedure: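 SELEX-seq with GST-tagged full-length IMP3 and an N40 RNA pool, round 4. Each 6-mer is scored as an enrichment z-score of sequence tags containing it, normalised to the matching GST SELEX round. RNA written as DNA (T = U).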
# IMP3 KH1-2 = details: construct: KH1-2 (164-376); SELEX round: R4
# IMP3 KH1-2, sequence (chain, as listed by the source): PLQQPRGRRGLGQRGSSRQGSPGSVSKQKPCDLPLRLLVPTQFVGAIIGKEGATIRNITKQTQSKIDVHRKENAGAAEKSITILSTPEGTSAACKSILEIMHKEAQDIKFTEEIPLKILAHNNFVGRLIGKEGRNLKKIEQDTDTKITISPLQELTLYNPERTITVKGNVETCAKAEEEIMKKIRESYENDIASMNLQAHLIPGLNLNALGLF
# Procedure: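 SELEX-seq with GST-tagged IMP3 KH1-2 (Pro164-Phe376) and an N40 RNA pool, round 4 (stringent 300/600 mM KCl washes). 6-mer z-score of sequence-tag enrichment normalised to the corresponding GST SELEX round; RNA k-mers written as DNA (T for U).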
# IMP3 KH3-4 = details: construct: KH3-4 (377-579); SELEX round: R4
# IMP3 KH3-4, sequence (chain, as listed by the source): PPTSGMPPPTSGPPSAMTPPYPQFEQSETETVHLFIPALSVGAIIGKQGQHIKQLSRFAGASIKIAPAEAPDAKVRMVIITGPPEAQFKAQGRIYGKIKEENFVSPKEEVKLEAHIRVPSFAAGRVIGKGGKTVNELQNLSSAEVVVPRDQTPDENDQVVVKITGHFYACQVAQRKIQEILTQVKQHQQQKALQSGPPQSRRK
# Procedure: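 SELEX-seq with GST-tagged IMP3 KH3-4 (Pro377-Lys579) and an N40 RNA pool, round 4. 6-mer z-score of sequence-tag enrichment normalised to the corresponding GST SELEX round; RNA k-mers written as DNA (T for U).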
# IMP3 KH1-4, sequence (chain, as listed by the source): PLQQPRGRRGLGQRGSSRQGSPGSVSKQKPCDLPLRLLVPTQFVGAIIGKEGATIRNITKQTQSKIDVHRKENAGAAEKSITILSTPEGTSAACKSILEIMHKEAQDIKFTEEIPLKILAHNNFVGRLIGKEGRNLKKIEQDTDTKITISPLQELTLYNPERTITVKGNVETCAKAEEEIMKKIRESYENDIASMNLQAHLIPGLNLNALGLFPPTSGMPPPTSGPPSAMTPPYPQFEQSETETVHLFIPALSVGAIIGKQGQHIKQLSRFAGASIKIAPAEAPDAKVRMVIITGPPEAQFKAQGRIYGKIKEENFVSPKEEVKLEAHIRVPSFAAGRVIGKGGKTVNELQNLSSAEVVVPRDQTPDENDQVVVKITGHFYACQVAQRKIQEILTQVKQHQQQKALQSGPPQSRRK
Sequence,6-mer SELEX enrichment z-score (IMP3 KH1-4),6-mer SELEX enrichment z-score (IMP3 RRM1-2),6-mer SELEX enrichment z-score (IMP3 full-length),6-mer SELEX enrichment z-score (IMP3 KH1-2),6-mer SELEX enrichment z-score (IMP3 KH3-4)
CGAGGG,-0.525,-0.23,-0.019,-0.267,-0.333
TGACCC,-1.18,-0.994,-1.36,-1.14,-1.72
GGGTAC,-0.349,0.282,0.227,-0.226,-0.132
GATGCG,-0.826,-0.217,-0.546,-0.734,-0.494
TTCTTG,-0.272,0.523,-0.045,-0.186,-0.074
CCTATG,-0.159,-0.243,-0.542,-0.279,-0.339
AACTGG,-0.103,-0.525,-0.34,-0.209,-0.108
AAAAGT,-0.543,-1.5,-1.31,-0.802,-0.103
GGGCTT,-0.017,0.457,0.252,0.135,0.312
CTTGAA,-0.872,-0.639,-0.919,-0.836,-0.759
TGAGGC,0.549,0.11,0.541,0.348,0.611
TCCGCA,0.716,0.251,0.803,0.847,-0.035
CTTTGA,-0.006,-0.246,-0.407,-0.154,0.049
GAGTGT,-2.17,-0.079,-1.6,-2.06,-1.86
CGTTCT,-0.116,0.244,0.062,-0.053,-0.067
CGTACC,-1.59,-0.235,-0.633,-1.49,-1.77
TAGGTG,0.176,0.302,0.12,0.202,0.396
CCTGAG,-1.92,-0.667,-1.54,-1.78,-1.86
AGAAGC,-0.561,-0.703,-0.49,-0.505,-0.339
CCAGTC,0.629,0.194,0.469,0.278,-0.233

# Source: the supplement of paper PMC6531468
